Source: article PMC12136788
Numbering of substitutions follows the chain as printed. This is one part of the list.

T1: UNK ZnF1-3 (human, UniProt Q9C0B0 31-174)
T1 sequence: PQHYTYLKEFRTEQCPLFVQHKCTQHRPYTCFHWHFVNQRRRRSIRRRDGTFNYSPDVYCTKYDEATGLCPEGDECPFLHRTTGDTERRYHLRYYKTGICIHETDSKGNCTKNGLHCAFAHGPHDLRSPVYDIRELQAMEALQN

B1: chr6:24533737:24533738:+_ENSG00000112294_ENST00000357578|hu_mus|FALSE|FALSE (ssRNA)
RNA: GGGAGUUCUACAGUCCGACGAUCCAGCUGCUCCGCCACUCUCCAGAUCUGGGCCGGGUCUUGAGAGUAAAAGUAACCUGCCAAUCCAACCUCAGCUGCAUUUGCGAUGGCGACGGCCUCUUCCUCCUUAUCAAACUUGAUGACCAACAGAGGAUUGAGCAUCA
B2: 108200678_108200798_6499_CDS_ENSMUSG00000068740_ENSMUST00000090558|mouse|control|control (ssRNA)
RNA: GGGAGUUCUACAGUCCGACGAUCAAUGUUGGGUGUGACGAUGGUGAAGGGGCUUAGGUAGGUGUGCCGCAUAUUCUGGGCAAGGGCGCUGGCGUAAGCCUCAUAGUGCUGGAGCAGCCAGGCGGUGCCACCCUCUGUCUGCUGCAACAGAGGAUUGAGCAUCA
B3: chr19:8913615:8913616:-_ENSMUSG00000071658_ENSMUST00000096259|mus_hu|mus_mus_mus_hu_False|78_88 (ssRNA)
RNA: GGGAGUUCUACAGUCCGACGAUCAGGGUACCAAAACCUUCUGCCUGAGAUAGGUGCCCCACCCUGCAGGGAGUUGCAGCUGAAAGUAUCUGAUGCAGAAGCAGUGACUAUACGAAAGGAGGCCCCUGGGGAGGGCCAGGCCAGCAACAGAGGAUUGAGCAUCA
B4: 72499018_72499138_2910_3pUTR_ENSMUSG00000020794_ENSMUST00000021148|mouse|control|control (ssRNA)
RNA: GGGAGUUCUACAGUCCGACGAUCACCACUCCUACCUUCCCAGUAGUCCUUGAUCUAGCCCAAAGAAACACAAGGUUAUCCAAAGGUAAAUAAGUAUAUUACAGUGCCACUUAUAAGUUCAGAAAUAGUUGUCCCUGAGUUACUCAACAGAGGAUUGAGCAUCA
B5: chr1:163112212:163112213:-_ENSG00000143248_ENST00000313961|hu_hu|hu_hu_hu_mus_False|8_28 (ssRNA)
RNA: GGGAGUUCUACAGUCCGACGAUCUUUUAUUAUCAGUAAGAGUGAGUUACAUACUAGGCAAAGUAUUGGAUACAAUAAUCAGGAAACAAACACUAUUGGUCCAGAAUUUAAAAUAUAAUGAGCGAAGGCUUACAAAUGGACUUACAACAGAGGAUUGAGCAUCA
B6: 179628843_179630482_2732_CDS_ENSMUSG00000000305_ENSMUST00000000314|mouse|control|control (ssRNA)
RNA: GGGAGUUCUACAGUCCGACGAUCAUAGUCGAAGACUAGCAGGGAGUCGUAGGGGGGUGCGGUGGGGUCAUUGUCAGCAGCUCGGAGUCCCUCAUUAAUGAAGUCUCCAAUGUCUCCUGGGUGUGGCACCACAGGCCUGACUGGCAACAGAGGAUUGAGCAUCA
B7: chr11:9308113:9308114:-_ENSG00000166471_ENST00000528080|hu_mus|FALSE|FALSE (ssRNA)
RNA: GGGAGUUCUACAGUCCGACGAUCAUUAGGAAGAAACGGUGUGAUCCUCAAAAAUAUAAUGUAGUUAAUAAGAUGUUCUCUGUGACGCUCUACCUGCUGUGACCAUUUCACUGCCUUCUCUGUUAGGUAUUUGUAUACAACGGGCAACAGAGGAUUGAGCAUCA
B8: chr11:46405157:46405158:+_ENSG00000110492_ENST00000395566|hu_hu|hu_hu_hu_mus_False|18_68 (ssRNA)
RNA: GGGAGUUCUACAGUCCGACGAUCCCCUCCCCACUUUGGGCACUUGGUGUGGGCGUGAGAGGACAGGAUGAUUGAUUAGAGCUGACAGGAAGACAAAAGGCACUGGUGGGUUAUAUCUCGGGCCUGGGGGAGAGGAGGGCUCCGCAACAGAGGAUUGAGCAUCA
B9: 17617275_17622462_2223_CDS_ENSG00000125844_ENST00000246043|human|control|control (ssRNA)
RNA: GGGAGUUCUACAGUCCGACGAUCGCGUGCCUGCACAGCCGUGAUCUCCUGCUCCCGGGCCACCAGCUGCUUUUUCACUUUGGCCUCCCCGGCUGCUGCUUUGGCCUUUUCUGCUGCCAUCUCCUUGUUGAGCUCCCUCAGUUUCAACAGAGGAUUGAGCAUCA
B10: chr1:87185206:87185207:+_ENSG00000097033_ENST00000482504|hu_hu|motif|central (ssRNA)
RNA: GGGAGUUCUACAGUCCGACGAUCUGGGUUGUUUAUACGACUUGGAGCUUUUCUAUCCAGUUUCUCAUAAACAAAUUCUUCGGUCCUGGCAUUUGGAUUUGGCUGCAAUAACACUUCAGUUUGUUUCAUUAUUUUUUCUGUCCACAACAGAGGAUUGAGCAUCA
B11: chr18:16782857:16782858:-_ENSMUSG00000024304_ENSMUST00000115850|mus_hu|FALSE|FALSE (ssRNA)
RNA: GGGAGUUCUACAGUCCGACGAUCGGGAGGAUUACCCGAAUCUGUGAUUAUGAUGGGAACUUCAUAGAUACCAGCUUCAAGAAAUUUUAUCUUUAAAUUAAGCUGAGCAAAAUCACCAUUAAGCCGAGUGAUGGUCCAAUUUCUCAACAGAGGAUUGAGCAUCA
B12: chr4:83978449:83978450:+_ENSG00000138663_ENST00000264389|hu_mus|FALSE|FALSE (ssRNA)
RNA: GGGAGUUCUACAGUCCGACGAUCUAUUGUCUUGUAAGAGAGCUCAUUGUACCUCUGGGCGGCCUCAAUGAAUUUCCUUCUGUAAUCAAGGACACGCGCAUAGCAAACCUUAUAGUGUAUCUGUAACUGUUCAUUUGUGGAUUCCAACAGAGGAUUGAGCAUCA
B13: chr1:165697036:165697037:-_ENSG00000143183_ENST00000464650|hu_hu|FALSE|FALSE (ssRNA)
RNA: GGGAGUUCUACAGUCCGACGAUCUGAAACAAGAAGGAUGCUAUUUGUUUUUCAUUACAUAAACAUUACCUGAACUUAACUAAUCAAUCCACUUAUUUGAUAAAAAUCAUCUAGGACCAAAAGCACUAUCAAGUUUGCUGGCUGCAACAGAGGAUUGAGCAUCA
B14: chr7:54825262:54825263:-_ENSG00000132432_ENST00000352861|hu_hu|hu_hu_hu_mus_False|1_78 (ssRNA)
RNA: GGGAGUUCUACAGUCCGACGAUCCUGCCGGCUGGGCUCCACAAACUGCAUUACCUGCAUGACUGCCGUUGGAUGGCGGAUUGAGAGCGUAGAGACACGUAGCUCAGGAGAGAACCGAGCCCAACGGAACCGGAAGCGGAAUCCCAACAGAGGAUUGAGCAUCA
B15: chr18:48442549:48442550:+_ENSG00000082212_ENST00000321341|hu_hu|FALSE|FALSE (ssRNA)
RNA: GGGAGUUCUACAGUCCGACGAUCAAUUGAUCUAACAUGACCUCUGUCUGAGAUCGAAAUAAAUAAUCCCUUAGGUCUUCUAAAGAUGUGUCCAUACUGGGAGCAGGCAAGACCAACCGUCGGUGUAUAUACAAUUGGCAUUAACAACAGAGGAUUGAGCAUCA
B16: chr9:59598888:59598889:+_ENSMUSG00000039585_ENSMUST00000128341|mus_mus|FALSE|FALSE (ssRNA)
RNA: GGGAGUUCUACAGUCCGACGAUCGGACUGGGCAGGCACAUCCCCCGCCGCACCCCGCCCAGAGAGCACGCGUUGGAAGCUAAACCGCGGUCCCUGCUUUUGCCCGGGGACCGGUAUCUCCGCCGCAGUCCCUCCCCGUCCUGCCAACAGAGGAUUGAGCAUCA
B17: chr16:94664741:94664742:+_ENSMUSG00000040785_ENSMUST00000117648|mus_hu|mus_mus_mus_hu_False|1_8 (ssRNA)
RNA: GGGAGUUCUACAGUCCGACGAUCUGGUACUGAUCUUGGUAGCUGAUAUUCAGGAGAAAGGCUGGCCAAGGGUGUAUAUAUGCUGGUGUACUGGGGCAAACCUGGUAACACGUUUAUGUAUGCUGGCCGCUGGGUGAUGCCAAACAACAGAGGAUUGAGCAUCA
B18: 43876696_43876816_1016_3pUTR_ENSG00000149084_ENST00000278353|human|control|control (ssRNA)
RNA: GGGAGUUCUACAGUCCGACGAUCCAAUGCAGUUAUCAAUGCUUAGUUCUUCUUGGUUUUCUUCAGAUAGUGAGCCCGUGUAGACUUGUUCAUAUUCAUGACUAUUUUCAAAUAAAUCCAAGAAGGCAGGUUUGAGAUUAUCGACAACAGAGGAUUGAGCAUCA
B19: 77745829_77755158_922_CDS_ENSG00000085365_ENST00000538629|human|control|control (ssRNA)
RNA: GGGAGUUCUACAGUCCGACGAUCUGCUGAUGCUGUGAAAAGUGCUGCUAUGAUUAUCAUCAUGAUUCCAACAGGAAUAUUUUGGUUGAGACCAGUAAGGGAUGAAAUCCAACCACCAAUGCCCCAGUUAUGAAAUCCUGCAGCCAACAGAGGAUUGAGCAUCA
B20: chr10:33190432:33190433:-_ENSG00000150093_ENST00000302278|hu_mus|hu_hu_hu_mus_True|8_28 (ssRNA)
RNA: GGGAGUUCUACAGUCCGACGAUCUACAUUUUCCAAACCUGCAUGUGAAUAAAACCCUGGCCACAGAGCCCCAAAACUACCCUACUGUGACUAAGAUGCUGCUGCUGUUGCAUUCAGGUUGCAAAAUUUUGCACGGGAGGAUUCCAACAGAGGAUUGAGCAUCA
B21: chr18:16782857:16782858:-_ENSMUSG00000024304_ENSMUST00000115850|mus_mus|FALSE|FALSE (ssRNA)
RNA: B11 RNA with A27G, A33C, C36U, U48A, A78C, G80A, A99G, A126G, G127U, A138G
B22: chr7:117217587:117217588:+_ENSMUSG00000061079_ENSMUST00000084727|mus_mus|FALSE|FALSE (ssRNA)
RNA: GGGAGUUCUACAGUCCGACGAUCGAUAUAAGCUGUUGUCCCAUCUUCUAACUGAACGGCCUGAAGUGAGCUCUGGUCAUAACUGUCUUUCGAGGUGUGGUGGAUAAAUGCAGUGGUCCCGUCUUCUAGCUGCACUGCUUGCCCCAACAGAGGAUUGAGCAUCA

The binders below were run against T1, UNK ZnF1-3 (assay: nsRBNS (natural sequence RNA bind-n-seq); RBNS binding buffer (assumed for nsRBNS): 25 mM Tris pH 7.5, 150 mM KCl, 3 mM MgCl2, 0.01% Triton X-100, 500 ug/ml BSA, 20 U/ml SUPERase-In, 4 C; UNK is unkempt and MSI1 is Musashi-1; names of the RNAs are library labels; protein concentration not given here; high values mean tight binding).

Compared with B1, B2 is lower in binding signal: 1.35 enrichment R for the first, 0.848 enrichment R for the second.

First: B3
Second: B4
The binding signal of the first is lower: 1.05 enrichment R for the first, 1.56 enrichment R for the second.

Going from B5 to B6, the binding signal falls from 2.17 enrichment R to 1.05 enrichment R.

Compared with B7, B8 is higher in binding signal: 1.45 enrichment R for the first, 2.26 enrichment R for the second.

Compared with B9, B10 is lower in binding signal: 0.656 enrichment R for the first, 0.321 enrichment R for the second.

Compared with B11, B12 is higher in binding signal: 0.935 enrichment R for the first, 0.972 enrichment R for the second.

Going from B13 to B14, the binding signal rises from 0.886 enrichment R to 1.21 enrichment R.

First: B15
Second: B16
The binding signal of the first is lower: 1.07 enrichment R for the first, 1.08 enrichment R for the second.

Going from B17 to B18, the binding signal falls from 1.08 enrichment R to 0.804 enrichment R.

Compared with B19, B20 is lower in binding signal: 1.49 enrichment R for the first, 0.991 enrichment R for the second.

Going from B21 to B22, the binding signal falls from 1.49 enrichment R to 0.844 enrichment R.
